Data from the supplement of paper PMC11417369.
The list shows a part of the results.

System: PfAP2-HC AP2 domain (GST-tagged)
Experiment: gcPBM binding intensity (ln(normalized median fluorescence intensity)); higher = stronger DNA binding
Outline: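 Plasmodium falciparum DNA-binding domains carrying a GST tag were expressed in E. coli and applied for 1 h, at about 25 μg on average, to an Agilent 4 × 180k array. The array held primer-extended double-stranded 36-bp intergenic genomic probes together with negative controls, and binding took place in 1× PBS with 1% milk, 0.2 mg/ml BSA, 0.5% salmon testes DNA and 0.03% Triton X-100. An Alexa488 anti-GST antibody detected bound protein, and the array was scanned at 488 nm. Binding intensity is taken as the highest Masliner-normalised natural-log median intensity across replicate spots of either probe orientation.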

Sequence	gcPBM binding intensity (ln)
AAAAAAAAAAAAATGTGGACACAATTGTGTGTTTGT [XGTACX_site3563]	10.1
TTTTTGTTAAAATAAATATTATAAATATATTAATAT [TGCATGCA_negctrl_site239]	9.26
TACATATTTTATAGCACACAAATAATAATATGTAGT [CACACA_site688]	9.69
GTTGTGGAAAGAAGTTGTACATAAAATATTATATAA [XGTACX_site4352]	9.58
CATCATATAAATTCAAGTACAAGAAAAAGTAATATA [XGTACX_site2383]	9.64
TAAATAAAGATATATACACACATATTTATATTTATA [CACACA_site6431]	9.86
AAATAATTTTTATTTGTACACACATACATATATATT [CACACA_site8240]	9.96
ACAAAATTGAAATTCACACAAAAACTATACTTTTTA [CACACA_site4638]	9.51
ATATCTACTTTTTTATGTACGAAAAAAATACGGATT [XGTACX_site8937]	9.39
TTATTCATAAAAACAAAAAACAAAAATGAAATAGGA [CACACA_negctrl_site1123]	9.64
TATGATATAATATACACACATACATATATATATATA [CACACA_site510]	9.75
TATTATGTCTAAAATAACATATTAATATATTATTTC [CACACA_negctrl_site285]	9.56
TTAATATTTTATTTCACACACATAAATGCCCCAAAC [CACACA_site1887]	9.9
AGAGTTCTCCTATGCACACAAAAAACTTTCATTTAT [CACACA_site4193]	9.81
AAAAAATACATACATACACACATATATATATATATA [CACACA_site913]	10.6
TCCTCTTATAATTCGTGTCCACATATATCATACAAT [XGTACX_site1523]	9.71
ATAAAACAAATGAGTACACACACATAAAAATTGAAA [CACACA_site7949]	10.2
TACGGATATATATATTGTACATATATATAATATATA [XGTACX_site3156]	9.65
TATATATATATTAATAGTACATATTATGTAAGCCTA [XGTACX_site2826]	9.87

Sequence	gcPBM binding intensity (ln)
TTTTTTTTTTTTTTTGTGCACAATATAATTTTTAAT [GTGCAC_site9747]	9.58
TTTCAGACAAAAAAAAAAAAAAAAAAGAGGAGAATA [CACACA_negctrl_site254]	9.25
TTATAATATATATCTGCATGTTGCTTTGGGGCTTTA [TGCATGCA_site712]	9.7
TATATTAAACAATATACACACATTAATGTAGACATA [CACACA_site8889]	9.77
GAAAATTCTTAAGGCACACACATATAAGATATATAC [CACACA_site6410]	9.99
AACCTTTTAAGAGTTGCACACGTACAAAAAAAAAAA [CACACA_site9159]	9.71
AATAAAAAAAAAAAAAAAAAAAAAAACCTGAGGAGT [CACACA_negctrl_site1140]	9.52
TTTAAGCAAAGACACACACACATATTTATATTTATA [CACACA_site6295]	10.2
AAACATTTATACAAAGCACACAATTTTTAACTTTTA [CACACA_site2627]	9.62
TGTCAAAATATGTATACACACAATTTTTTTTTTTTT [CACACA_site2465]	9.87
ATTCATTTACCAATGGTGCAATATATTTTTATAATG	9.71
TAATAAATAAAATAGAGTACAGGGATTTCATTAAAT [XGTACX_site8979]	9.87
TATATTACTTATATTTGTACACAGAAATATAAATCA [XGTACX_site13]	9.44
TTTTTCATAAGAAGCACACAAAAAATGATAGAGAAT [CACACA_site1417]	9.74
TAATATGCATAAAATTGTACAAACTTACATATAATA [XGTACX_site2752]	9.79
TTTTCTTGACCTATTATTCTTCTCATAGTATAATAT [GTGCAC_negctrl_site641]	9.62
TTCATAGAATTATATATTTTAAAAAAAAAAATAATT [CACACA_negctrl_site175]	9.31
TTTTTTATAGGACATGCATGTTGTAGAGCTGTATAT [TGCATGCA_site704]	9.59
AATATATTTTAATATACACACATATATGCTCTTTAA [CACACA_site9371]	9.82

Sequence	gcPBM binding intensity (ln)
TTATTTTTTTTGTGTTGTACAATTTATTACTACTAA [XGTACX_site346]	9.76
AAACAAATATGTAGCACACATTCACATAATATATTT [CACACA_site2335]	9.87
GTATTTATAATACGGCGTACATAAAAAAAAAAAAAA [XGTACX_site3705]	9.41
TTATTTATGTGTAGGGCATGCAATCGTGTTTTTAAA [TGCATGCA_site735]	9.72
AAAAAAAAAATATATTGTACAAATAGATATGTCAAT [XGTACX_site122]	9.63
AAAGAAAGTACCTTCACACATATAAGAATATAATAT [CACACA_site5214]	9.67
TGAAATACGAATTATTGTACTTATGTGTAAGATGGC [XGTACX_site4472]	9.71
AAAAAAAAAAAAAAAAGTACACAGTAGAATTAAATG [XGTACX_site1843]	9.65
TTTTTTTTTTAATTAACACACATAAATATATATATA [CACACA_site3275]	9.49
GAACAATAAATAAAAAAAATAAAAATAAAAATAAAA [TGCATGCA_negctrl_site35]	9.65
ATAAGTAAATTAGATACACACATGATATCATACATA [CACACA_site1623]	9.91
TCAATAATAACAAATGAACACACATATATATGAGCA [CACACA_site8663]	9.8
AGAAAAAAATAATGTACACACACATAGATGTTTATA [CACACA_site4271]	10.4
AATATATTTGTGTATGTGCGCAGTGTGTAATTTATT [GTGCAC_site9765]	10.1
CATCTCATATTTTGAAGTACTAAGAAAAGATATAAA [XGTACX_site6867]	9.22
ATAAATTTTTTTTTTTTTTTTTTTCTTTTTCTTTGT [CACACA_negctrl_site1231]	9.41
ACTAAAGTGTATCACTGTACAATTCTTCTCTTTTTT [XGTACX_site8705]	9.71
ACGTAATTAATTCATCAGATATAATTAATAATAATA [XGTACX_negctrl_site550]	9.52
